# Laboratory results reported in PubChem BioAssay AID504339 (National Center for Advancing Translational Sciences (NCATS), 2011).
# Hit rate of the full screen: of about 390,000 compounds, about 17,000 (4.4%) were called active. The shares of active, inactive and inconclusive entries below differ from those in the screen. Calls follow the shape of the dose curve; as a rule, active = well fitted inhibition curve with a large enough effect; inconclusive = small, poorly fitted or top-dose-only effect; inactive = no such curve, though single readings can be large or run the other way. Where the call is inconclusive, the potency comes from a doubtful curve fit.
# Target: Lysine-specific demethylase 4A (Homo sapiens) (UniProt O75164)
# Assay: qHTS Assay for Inhibitors of JMJD2A-Tudor Domain; also: nearly all actives have a fitted effect of over 50% in size
# Conditions: AlphaScreen JMJD2A-Tudor / H3K4me3 peptide binding; activity change, negative = inhibition: at 114 µM (top of the series)
# % is scaled to controls: 0 for no effect and ±100 for the full control effect; potency is read from the fitted curve at half-maximal effect; tags tell the direction and shape of the fitted curve.
# Chain of UniProt O75164 (O75164 whole entry, looked up, the tested form may be a part): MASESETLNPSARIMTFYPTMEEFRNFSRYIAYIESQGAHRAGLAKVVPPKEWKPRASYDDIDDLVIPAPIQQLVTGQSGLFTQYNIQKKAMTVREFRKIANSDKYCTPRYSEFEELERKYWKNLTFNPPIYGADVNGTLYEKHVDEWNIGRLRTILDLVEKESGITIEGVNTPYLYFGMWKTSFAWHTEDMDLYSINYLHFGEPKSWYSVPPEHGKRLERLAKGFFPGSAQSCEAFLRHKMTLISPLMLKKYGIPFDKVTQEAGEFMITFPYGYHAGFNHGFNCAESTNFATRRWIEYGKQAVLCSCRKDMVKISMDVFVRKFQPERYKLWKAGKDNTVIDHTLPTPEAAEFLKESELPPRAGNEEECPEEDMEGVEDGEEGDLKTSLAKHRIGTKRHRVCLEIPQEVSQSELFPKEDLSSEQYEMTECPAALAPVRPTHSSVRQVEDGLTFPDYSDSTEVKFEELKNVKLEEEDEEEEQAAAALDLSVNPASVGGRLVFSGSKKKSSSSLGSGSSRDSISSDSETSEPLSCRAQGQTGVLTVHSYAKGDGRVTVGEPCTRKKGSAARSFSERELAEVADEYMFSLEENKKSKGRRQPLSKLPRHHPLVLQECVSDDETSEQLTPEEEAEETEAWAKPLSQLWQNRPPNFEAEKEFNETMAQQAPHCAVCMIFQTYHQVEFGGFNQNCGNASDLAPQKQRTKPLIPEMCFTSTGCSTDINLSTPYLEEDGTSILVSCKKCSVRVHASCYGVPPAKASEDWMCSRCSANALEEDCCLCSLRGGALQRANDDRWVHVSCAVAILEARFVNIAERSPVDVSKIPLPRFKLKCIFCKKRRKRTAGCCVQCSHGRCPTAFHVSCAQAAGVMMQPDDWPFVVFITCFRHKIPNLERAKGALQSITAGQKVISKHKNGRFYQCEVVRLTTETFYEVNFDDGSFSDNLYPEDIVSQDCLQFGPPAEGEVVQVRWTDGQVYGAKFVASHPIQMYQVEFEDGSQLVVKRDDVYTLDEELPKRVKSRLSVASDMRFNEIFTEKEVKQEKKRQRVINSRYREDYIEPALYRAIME
SMILES,Potency,"activity change, negative = inhibition"
COc1ccc(NC2CCCN(C(=O)CCc3cccc(Cl)c3)C2)cc1 (configuration not stated),"inconclusive: 39.8 µM [inhibitor, partial curve]",–
Nc1ccc(N2CCN(CCCCN3C(=O)C4CCCN4C3=O)CC2)cc1 (configuration not stated),"inconclusive: 79.4 µM [inhibitor, partial curve]",–
O=c1c(=O)n(O)c2ccccc2n1O,active: 50.1 µM,–
Cc1csc(NC(=O)CCN2C(=O)c3ccccc3S2(=O)=O)n1,"inconclusive: 89.1 µM [inhibitor, single point]",–
O=C(COC(=O)Cn1cnc2ccccc21)Nc1ccc(OC(F)F)cc1,–,inactive: -16.4%
CCN(CC)S(=O)(=O)c1ccc(C(=O)OCC(=O)NCc2ccco2)cc1,"inconclusive: 44.7 µM [inhibitor, partial curve]",–
CC(C)c1ccc(COC(=O)CN2C(=O)NC3(CCCCC3C)C2=O)cc1 (configuration not stated),–,inactive: -1.02%
CCN(CC)S(=O)(=O)c1cc(NC(=O)c2ccccc2OCc2c(C)noc2C)ccc1C,active: 89.1 µM,–
OC1(c2ccc(OC(F)F)cc2)CSC(=Nc2cccnc2)N1C1CC1 (configuration not stated),"inconclusive: 63.1 µM [inhibitor, partial curve, poor fit]",–
CCC(COC)NCc1cn(-c2ccc(OC)cc2)nc1-c1cccc(F)c1 (configuration not stated),–,inactive: -10.6%
CC(=O)/C(=N\Nc1ccc(Cl)cc1)Sc1nnc(-c2ccccc2)n1-c1ccccc1,"inconclusive: 31.6 µM [inhibitor, full curve]",–
CC(C)NCCOCCOc1ccc(Cl)cc1Br,active: 3.16 µM,–
Cc1c(NC(=O)OCCNC(=O)COc2ccc(Cl)cc2Cl)sc(=S)n1C,"inconclusive: 89.1 µM [inhibitor, single point]",–
CCC(=O)Oc1c(Sc2ccc(Cl)cc2)c(C)nn1-c1ccccc1,–,inactive: -21.5%
COc1ccccc1/C=C/CN1CCCCC1,active: 1.41 µM,–
O=C(NCCCN1CCN(c2cccc(Cl)c2)CC1)c1sc2ncccc2c1-n1cccc1,active: 31.6 µM,–
CC(=O)Nc1ccc(-c2nnc(SCC(=O)Nc3ccc4c(c3)oc3ccccc34)n2C)cc1,active: 100 µM,–
C=CCC[C@@H](Cc1ccc(F)cc1)C(=O)OC[C@@H]1CCCN1C(=O)[C@@H](CC=C)CC(=O)N[C@@H](CO)Cc1ccccc1,–,inactive: -18.6%
Cc1ccc(C)c(NC(=O)CCC(=O)N/N=C/c2ccc3c(c2)OCO3)c1,"inconclusive: 11.2 µM [inhibitor, partial curve, poor fit]",–
CC(=O)c1cccc(Oc2cc(NN3CCCCC3)c([N+](=O)[O-])cc2[N+](=O)[O-])c1,"inconclusive: 44.7 µM [inhibitor, partial curve]",–
N#CCCN(C(=O)COC(=O)c1ccc2c(=O)n3c(nc2c1)CCC3)c1ccccc1,active: 14.1 µM,–
Cc1sc2ncnc(SCC(=O)c3ccc(O)cc3O)c2c1C,–,inactive: 1.47% [at 11.4 µM]
Cc1cc(SCC(=O)N/N=C/c2ccc(O)c(O)c2O)c(C)cc1Br,active: 50.1 µM,–
Cc1ccc(-c2nc(C#N)c(N3CCCCC3)o2)cc1,–,inactive: -21.3%
CN(CC(=O)NC1CC(C)(C)NC(C)(C)C1)S(=O)(=O)c1ccc(Br)cc1,–,inactive: -15.8%
O=C(CCC(=O)c1ccc(F)cc1)Nc1ccc(Cl)cc1,–,inactive: -2.88%

SMILES,Potency,"activity change, negative = inhibition"
O=C(Oc1ccccc1/C=C\C(=O)c1cc2ccccc2o1)c1ccccc1,–,inactive: -31.9%
COC(=O)c1ccc(N=Nc2c(C)[nH]n(-c3ccccc3)c2=O)cc1,"inconclusive: 2.82 µM [inhibitor, full curve]",–
COc1cc(-c2nnc(SCC(=O)c3cc(C)n(CC4CCCO4)c3C)o2)cc(OC)c1OC (configuration not stated),"inconclusive: 63.1 µM [inhibitor, partial curve, poor fit]",–
CCOc1cc(C2NC(=O)NC(C)=C2C(=O)OCc2ccccc2)ccc1O (configuration not stated),–,inactive: -12.9%
CC1CCc2cc(F)ccc2N1C(=O)CN1C(=O)c2ccccc2C1=O (configuration not stated),–,inactive: 2.08%
O=C(Nc1nc2cc3c(cc2s1)OCCO3)C1=COCCO1,"inconclusive: 14.1 µM [inhibitor, partial curve, poor fit]",–
CCn1cc(S(=O)(=O)c2cccc(C)c2)c(=O)c2cc(F)c(N3CCCC(C)C3)cc21 (configuration not stated),–,inactive: -10.9%
O=C(OCC(=O)N1CCCC1)c1cnc(Cl)c(Cl)c1,–,inactive: -2.07%
N/C(=N\OC(=O)N1c2ccccc2Sc2ccccc21)c1ccccc1,"inconclusive: 50.1 µM [inhibitor, partial curve]",–
CCCCC1=CC2=CC(=O)C(C)(OC(=O)CC)C(=O)C2=CN1Cc1ccccc1 (configuration not stated),"inconclusive: 14.1 µM [inhibitor, partial curve]",–
CCCCn1cnc2cc(NCc3ccc(OCC)cc3)ccc21,active: 39.8 µM,–
C[C@@H](NC(=O)/C(C#N)=C/c1ccc(O)c(O)c1)c1ccccc1,active: 39.8 µM,–
CCOc1ccc(NC(=O)c2cc(S(=O)(=O)N3CCc4ccccc43)ccc2F)cc1,–,inactive: -9.17%
COc1ccccc1Nc1n[nH]c(=S)s1,active: 3.98 µM,–
CC1(C)CC(NC(=O)Nc2ccc([N+](=O)[O-])cc2)CC(C)(C)N1,–,inactive: -9.97%
COc1ccc(OC)c(CNc2ccc3c(c2)CCC3)c1,"inconclusive: 79.4 µM [inhibitor, partial curve]",–
NC(=O)CC(NC(=O)c1cccc(Br)c1)c1ccc(N2CCCCCC2)c([N+](=O)[O-])c1 (configuration not stated),"inconclusive: 56.2 µM [inhibitor, partial curve]",–
O=C1Nc2ccc([N+](=O)[O-])cc2OC1CCN1CCN(Cc2ccc3c(c2)OCO3)CC1 (configuration not stated),"inconclusive: 44.7 µM [inhibitor, partial curve]",–
COc1ccc(Oc2nc(-c3ccccn3)nc3ccccc23)cc1,"inconclusive: 89.1 µM [inhibitor, partial curve]",–
COc1ccc(NC(=O)CN2CCc3ccccc3C2)cc1,active: 22.4 µM,–
CC12CCCCC1N(O)C(=O)C(=O)N2O (configuration not stated),active: 79.4 µM,–
Nc1cc(-c2ccccc2)c[nH]c1=O,"inconclusive: 79.4 µM [inhibitor, partial curve]",–
CS(=O)(=O)c1sc2nc(-c3cccs3)cc(-c3ccccc3)c2c1N,active: 89.1 µM,–
O=[N+]([O-])c1cc(Cc2ccccc2)cc(C=Nc2ccc(N3CCOCC3)cc2)c1O,active: 56.2 µM,–
O=C1c2c([N+](=O)[O-])cc([N+](=O)[O-])cc2S(=O)N1Cc1ccccc1 (configuration not stated),active: 89.1 µM,–
O=C(CSc1oc(-c2ccccc2)nc1S(=O)(=O)c1ccc(Cl)cc1)c1ccccc1,"inconclusive: 12.6 µM [inhibitor, partial curve, poor fit]",–

SMILES,Potency,"activity change, negative = inhibition"
COc1ccc(N2CCN(c3ccc(NC(=O)/C=C\C(=O)O)cc3)CC2)cc1,–,inactive: -26.5%
Cc1ccc2c(=O)cc(C(=O)Nc3ccc(S(=O)(=O)Nc4onc(C)c4C)cc3)oc2c1C,active: 56.2 µM,–
COCC1CCCCN1C(=O)CCCn1nnnc1CN1CCC(C)CC1 (configuration not stated),"inconclusive: 25.1 µM [inhibitor, single point]",–
CCC(c1nnnn1Cc1ccccc1)N1CCN(c2ccc(OC)cc2)CC1 (configuration not stated),"inconclusive: 44.7 µM [inhibitor, partial curve]",–
Cc1ccc(C)c(NC(=O)CSc2n[nH]c(-c3ccccn3)n2)c1,active: 1.26 µM,–
Cc1c(CC(=O)NCCCCCC(=O)O)c(=O)oc2cc3occ(-c4ccccc4)c3cc12,"inconclusive: 56.2 µM [inhibitor, partial curve]",–
COc1ccc(C(=O)N/N=C/c2ccccn2)cc1OC,"inconclusive: 1.26 µM [inhibitor, full curve]",–
CC[n+]1ccc(C)c2cc(P(=O)(c3ccccc3)c3ccccc3)ccc21,"inconclusive: 17.8 µM [inhibitor, partial curve]",–
Cc1ccccc1OCCNc1cc(N2CCN(CCO)CC2)ccc1[N+](=O)[O-],"inconclusive: 39.8 µM [inhibitor, single point]",–
S=c1nc(C2CCCCC2)n(-c2ccccc2)[nH]1,active: 15.8 µM,–
CSc1nc(Nc2ccc(F)cc2)cc(-c2ccccc2)n1,–,inactive: 43.4%
O=S(=O)(Nc1c(Br)cc(Br)c2cccnc12)C1CC1,active: 25.1 µM,–
COc1cc(/C=N/NC(=O)c2ccncc2)ccc1OC(=O)c1cccc(Br)c1,"inconclusive: 50.1 µM [inhibitor, partial curve]",–
COc1cc(C2NC(=O)N(C)C3=C2C(=O)CCC3)cc(OC)c1OC (configuration not stated),–,inactive: -11.7%
CC(C)(C)OC(=O)N1CCC(c2c(C(=O)NCCN3CCc4ccccc4C3)cnn2-c2ccc(F)cc2)CC1,–,inactive: -24.9%
CCc1cc2c(CN3CCN(Cc4ccccc4)CC3)cc(=O)oc2cc1O,"inconclusive: 100 µM [inhibitor, partial curve]",–
Clc1ccc(CSc2ncnc3nc[nH]c23)cc1,–,inactive: -12.4%
CCOc1cccc(C2C=C(c3ccc4c(c3)OCO4)NC(c3ccc(F)cc3)N2)c1O (configuration not stated),"inconclusive: 5.01 µM [inhibitor, full curve]",–
O=C(Oc1ccc2[nH]cc(CCN3C(=O)c4ccccc4C3=O)c2c1)c1ccco1,"inconclusive: 39.8 µM [inhibitor, partial curve]",–
Cc1nc2[nH]c(=S)n(C)c(=O)c2nc1C,active: 89.1 µM,–
Cc1ccc2cccc(NC(=O)c3ccc(OC(C)C)cc3)c2n1,–,inactive: -1.99%
Cc1ccc(NC2=C(Cl)C(=O)OC2OC(=O)c2ccccc2)c(C)c1 (configuration not stated),–,inactive: -15%
Cc1ccc(OCC(=O)NNC(=O)c2cc3ccccc3o2)cc1C,"inconclusive: 56.2 µM [inhibitor, partial curve]",–
Cc1ccc(NC(=O)CSc2nnc(/N=C/N(C)C)s2)cc1,–,inactive: 4.2%
CC(C)Nc1nc2ccccc2c(=O)[nH]1,"inconclusive: 20 µM [inhibitor, single point]",–
